Measured values published in the supplement of paper PMC7125110.
± gives the standard error. This sample is rich in variants without activity.

B1: glmS ribozyme (parent)
chain: AUAAAAGCGCCAGAACUACAGAAAUGUAGUUGACGAGGAGGAGGUUUAUCGAAUUUUCGGCGGAUGCCUCCAAA

Key:
Details in all cases: with glucosamine-6-phosphate
[1] = variants of: B1; experiment: self-cleavage kobs at 40 uM GlcN6P; higher = faster cleavage; RNA array
Summary of the method: (§1)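 Ribozyme variants carrying barcodes were transcribed in situ on sequenced MiSeq chips by E. coli RNA polymerase and tracked at 37 °C with a hybridised Cy3 probe. They were exposed to 40 μM to 10 mM glucosamine-6-phosphate in HEPES/KCl/Mg(OAc)2 buffer. kobs came from exponential decay fits of normalised per-tile medians, and kcat and KM from weighted Michaelis–Menten fits.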

[2] = variants of: B1; experiment: self-cleavage kobs at 640 uM GlcN6P; higher = faster cleavage; RNA array
Summary of the method: as §1

[3] = variants of: B1; experiment: self-cleavage kobs at 2500 uM GlcN6P; higher = faster cleavage; RNA array
Summary of the method: as §1

[4] = variants of: B1; experiment: self-cleavage kobs at 10000 uM GlcN6P; higher = faster cleavage; RNA array
Summary of the method: as §1

[5] = variants of: B1; experiment: self-cleavage kobs at 160 uM GlcN6P; higher = faster cleavage; RNA array
Summary of the method: as §1

Variant	self-cleavage kobs at 40 uM GlcN6P [1] [s⁻¹]	self-cleavage kobs at 640 uM GlcN6P [2] [s⁻¹]	self-cleavage kobs at 2500 uM GlcN6P [3] [s⁻¹]	self-cleavage kobs at 10000 uM GlcN6P [4] [s⁻¹]	self-cleavage kobs at 160 uM GlcN6P [5] [s⁻¹]
G35A U45A	< 1e-05	< 1e-05	< 1e-05	< 1e-05	–
A36U G37A G51U	< 1e-05	–	–	–	–
G35U G41C	< 1e-05	< 1e-05	< 1e-05	< 1e-05	–
C34G U47C A52G U54C	< 1e-05	–	–	–	–
G32U A53G A64U	< 1e-05	–	–	–	–
C34G A64C U65A	< 1e-05	–	–	–	–
G32U A33G A64G	< 1e-05	–	–	< 1e-05	–
G35U G59C C68A	< 1e-05	–	–	< 1e-05	–
G32U G38C U55A	< 1e-05	< 1e-05	–	< 1e-05	–
G35U G38U	< 1e-05	< 1e-05	< 1e-05	–	< 1e-05
A36G	< 1e-05	–	–	–	< 1e-05
A36G U46C	< 1e-05	–	–	–	–
A36C U49A	< 1e-05	< 1e-05	–	< 1e-05	–
G32C G35A A48U A52U U54C C67U	< 1e-05	< 1e-05	–	–	< 1e-05
G38U U49G	< 1e-05	–	–	< 1e-05	–
C34A C71U	< 1e-05	< 1e-05	< 1e-05	–	< 1e-05
G38A G40C G59C	< 1e-05	–	–	–	–
G38C G51U	< 1e-05	< 1e-05	–	< 1e-05	–
G32C A33U C61U	< 1e-05	–	–	< 1e-05	–
G35A U55A	< 1e-05	–	< 1e-05	–	–
G35A A53G	< 1e-05	< 1e-05	< 1e-05	< 1e-05	< 1e-05
C34A A48G U54C G66U C68G	< 1e-05	–	–	< 1e-05	–
G32U C50G C68G	0.00012 ± 2.5e-05	–	–	9.96e-05 ± 1.7e-05	–
G35U A52C	< 1e-05	–	–	–	–
G35U A52U	< 1e-05	< 1e-05	< 1e-05	< 1e-05	< 1e-05

Variant	self-cleavage kobs at 40 uM GlcN6P [1] [s⁻¹]	self-cleavage kobs at 640 uM GlcN6P [2] [s⁻¹]	self-cleavage kobs at 2500 uM GlcN6P [3] [s⁻¹]	self-cleavage kobs at 10000 uM GlcN6P [4] [s⁻¹]	self-cleavage kobs at 160 uM GlcN6P [5] [s⁻¹]
G37C G59U	< 1e-05	–	–	< 1e-05	–
C34G A48G	< 1e-05	–	< 1e-05	–	< 1e-05
G37C G62A	< 1e-05	–	–	< 1e-05	–
G37C G62U	< 1e-05	< 1e-05	–	< 1e-05	< 1e-05
G35A U47G C68U C70G C71G	< 1e-05	–	–	–	–
G35C G44U C71G	< 1e-05	–	–	< 1e-05	–
G32A C50A U55G C71G	< 1e-05	–	–	–	–
G38C U47C G59C G66U	< 1e-05	–	< 1e-05	< 1e-05	–
A36U G63C	< 1e-05	< 1e-05	–	–	–
A33U G37C G59U	< 1e-05	–	–	< 1e-05	–
A36G G51U	< 1e-05	< 1e-05	–	< 1e-05	–
G35U A36U C68A	< 1e-05	< 1e-05	< 1e-05	–	< 1e-05
G32U G59U	< 1e-05	< 1e-05	–	–	–
G35U C50U C67G	0.000272 ± 0.0001	–	–	–	–
G32C C34U	< 1e-05	< 1e-05	< 1e-05	< 1e-05	< 1e-05
C34U C61A C67G	0.00044 ± 0.00014	0.000318 ± 0.00013	–	–	–
G32C G37C G41U	< 1e-05	–	–	< 1e-05	–
C34G C50U	< 1e-05	–	–	–	–
A33G U49A	< 1e-05	–	–	< 1e-05	–
C34A A52C	< 1e-05	–	–	–	–
G35C C50G	3.26e-05 ± 1.4e-05	4.8e-05 ± 1.6e-05	0.000107 ± 1.2e-05	0.000205 ± 1.5e-05	7.69e-05 ± 3.7e-05
C34A G60U C68A	< 1e-05	< 1e-05	–	–	–
C34G G41A	< 1e-05	< 1e-05	–	< 1e-05	< 1e-05
A36U U45G	< 1e-05	< 1e-05	< 1e-05	< 1e-05	< 1e-05
A33C G37A G62C	< 1e-05	< 1e-05	< 1e-05	< 1e-05	–
